Reference: PubChem BioAssay AID485344 (National Center for Advancing Translational Sciences (NCATS), 2010)
About 6,900 (2%) of roughly 340,000 compounds were called active. Cut-off read from the data, not from the text of the source: active = inhibition above about 30%; inactive = below that, where a call was filed. The list shows a part of the results, in another mix than the full data. Where no call is shown, the source filed none.
Note: 0% is about no effect.

The molecules below were run against D(2) dopamine receptor (Homo sapiens) (UniProt P14416) (assay: HTS Assay for Allosteric Antagonists of the Human D2 Dopamine Receptor: Primary Screen for Antagonists). Conditions: HEK293 TREx D2 cells, calcium flux, dopamine EC80; at 10 µM; stronger effect = higher value.
UniProt P14416, sequence (P14416 whole entry, looked up): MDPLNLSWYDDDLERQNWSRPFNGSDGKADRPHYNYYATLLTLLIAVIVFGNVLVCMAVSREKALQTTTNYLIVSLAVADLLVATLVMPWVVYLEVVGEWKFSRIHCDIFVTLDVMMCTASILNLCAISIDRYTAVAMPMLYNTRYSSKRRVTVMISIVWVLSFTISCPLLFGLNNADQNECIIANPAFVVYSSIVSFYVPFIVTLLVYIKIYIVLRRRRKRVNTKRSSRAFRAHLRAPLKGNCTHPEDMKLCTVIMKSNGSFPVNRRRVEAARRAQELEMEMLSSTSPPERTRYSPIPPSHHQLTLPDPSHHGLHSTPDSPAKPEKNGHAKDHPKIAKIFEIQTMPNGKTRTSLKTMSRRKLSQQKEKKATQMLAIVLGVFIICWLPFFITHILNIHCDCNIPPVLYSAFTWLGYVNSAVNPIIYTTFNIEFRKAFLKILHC
Outline: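 Inhibition of EC80 dopamine-driven calcium flux, recorded kinetically, defines activity here; cells are a tetracycline-induced HEK293 T-REx line expressing force-coupled D2.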
In the case of `Cc1ccc(Cn2c(CNS(=O)(=O)c3c(C)cc(C)cc3C)nc3cccnc32)cc1`, the inhibition is reported as 27.7%. With `CC(=O)Nc1nonc1-c1nnc(SCC(=O)Nc2ccc(F)cc2F)n1-c1ccccc1` the inhibition was -9.04%. With `Cc1cccc(N2CCN(C(=O)c3cn(C4CCCCC4)c(=O)c4c3c3ccccc3n4C)CC2)c1C` the inhibition was 10.9%. `Cc1cc2oc(=O)c(CC(=O)NCCc3ccccc3)c(C)c2c2occ(C(C)(C)C)c12` gave an inhibition of -11.4%. For `COc1cc2c(cc1NC(=O)COc1cc(C)ccc1C)oc1ccccc12`, the inhibition was -2.22%. `CCCOC(=O)c1c(C)oc2c1cc(NS(=O)(=O)c1ccc(OCC)cc1)c1ccccc12` showed an inhibition of -2.29%. With `COc1ccc(-c2cn3c(n2)sc2cc(C(=O)NC4CCCc5ccccc54)ccc23)cc1` (stereo not drawn) the inhibition was 6.01%. `Cc1cc(C(=O)O)c2c(=O)n(C)c(=O)n(C)c2n1` showed an inhibition of 4.79%. `CCN(C(=O)CCc1nc(-c2ccc(C)cc2)no1)c1cc(C)ccc1C` gave an inhibition of 7.92%. `CCCCN(C)CCCNC(=O)c1ccc2nc(N3CCCCC3)sc2c1` was tested, and the inhibition was 4.4%. Molecule `Cc1cccc(NC(=O)C2CCCN(S(=O)(=O)c3cccc4nonc34)C2)c1C` (stereo not drawn) has an inhibition of 5.34%. For `C/C(=N/NC(=O)c1ccc(Br)o1)c1ccncc1`, the inhibition was active: 38.2%. Molecule `CCN1CCC(N(Cc2ccc3c(c2)OCO3)C(=O)Nc2cc(Cl)ccc2C(=O)OC)CC1` has an inhibition of -23%. For `Clc1ccc2c(c1)C(N1CCNCC1)Cc1ccccc1S2` (stereo not drawn), the inhibition was active: 98.5%. Molecule `CCCCN(CCCNC(=O)CN1N=C(c2ccccc2)CCC1=O)c1ccccc1` has an inhibition of -9.01%. In the case of `O=C(COc1ccccc1Cl)Nc1nc2c(s1)CCCC2`, the inhibition is reported as -1.06%. For `CCC(=O)N1CCc2cc(S(=O)(=O)CCC(=O)NCCc3ccc(S(N)(=O)=O)cc3)ccc21`, the inhibition was active: 32.4%. For `CCOc1cc(C2C(C(=O)OC)=C(C)NC3=C2C(=O)c2ccccc23)c(Br)cc1OC` (stereo not drawn), the inhibition was 7.03%. `CCOCCCNC(=O)Cn1nc(C)n2c(cc3cc(C)ccc32)c1=O` gave an inhibition of -7.33%. With `Cc1cc(OCC(O)CN2CCc3ccccc3C2)ccc1Cl` (stereo not drawn) the inhibition was active: 79.2%. `Cc1ccc(C)c(N2CCN(C(=O)Cn3c(=O)c4cccn4c4ccc(F)cc43)CC2)c1` showed an inhibition of 7.77%. In the case of `Cc1ccc(NC(=O)CSCn2nnc3c(=O)[nH]c(Cc4ccc(F)cc4)nc32)c(C)c1`, the inhibition is reported as 4.48%. With `CCCCC(CC)CNC(=O)CCCc1nnc2n(CCC)c(=O)c3sccc3n12` (stereo not drawn) the inhibition was 2.32%. In the case of `Cc1cccc(N2CCN(C(=O)c3ccc4c(c3)N(Cc3ccccc3F)C(=O)c3ccccc3S4=O)CC2C)c1` (stereo not drawn), the inhibition is reported as 0.373%. `COc1cc2c(=O)c(C(=O)c3ccc(C)c(C)c3)cn(Cc3ccccc3)c2cc1OC` gave an inhibition of 3.13%. With `COc1ccc(-c2cc3nc(C)c(CCC(=O)N4CCN(c5ccccc5)CC4)c(C)n3n2)c(OC)c1` the inhibition was 5.76%. `Cc1cc(C)c2nc(NC(=O)c3ccc(S(=O)(=O)N4CCCC4)cc3)sc2c1` was tested, and the inhibition was 5.67%. With `CC(=O)Nc1nonc1-c1nnc(SCc2ccc(F)cc2)n1C` the inhibition was 3.44%. `CCCCSc1nnc2n(-c3cccc(C)c3)c(=O)c3c4c(sc3n12)CCCC4` showed an inhibition of 22.4%. Work on `COc1ccc(NC(=O)COCc2cc(-c3ccco3)on2)cc1` yielded an inhibition of -5.57%. For `Clc1ccc(-c2csc(=Nc3ccccc3)n2Cc2ccc3c(c2)OCO3)cc1`, the inhibition was 20.1%. `Fc1ccccc1Oc1ncnc2c1oc1ccccc12` showed an inhibition of -4.06%. For `CCOC(=O)Cn1ncc(-c2ccccc2)c1N`, the inhibition was active: 56.9%. `COc1ccc(NC(=O)CSc2nc3ccccc3[nH]2)cc1` gave an inhibition of 5.52%. `Cc1ccc2nc(COc3ccc(NC(=O)COc4ccccc4F)cc3)cc(=O)n2c1` gave an inhibition of -11.2%. `Cc1cccc(OCc2nc(C#N)c(NCc3ccccc3Cl)o2)c1` showed an inhibition of 13.4%. `COCCNC(=O)CSc1c2c(nc3cc(Cl)ccc13)CCCC2` was tested, and the inhibition was 5.22%. Work on `CCCc1nn2c(=O)cc(COC(=O)c3cccc(NC(=O)CCc4ccccc4)c3)nc2s1` yielded an inhibition of 9.7%. `NCCCCCc1nnc(SCc2ccc(F)cc2)o1` was tested, and the inhibition was -6.77%. For `COCCCNC(=O)c1ccc2nc(Cc3ccc(OC)cc3)oc2c1`, the inhibition was 11%. Work on `CCOc1ccc(CNC(=O)C2CCN(S(=O)(=O)N3CCCCC3)CC2)cc1` yielded an inhibition of 5.24%. In the case of `CCn1cc(S(=O)(=O)c2ccc(OC)cc2)c(=O)c2cc(F)c(N3CCC(C)CC3)cc21`, the inhibition is reported as -12.3%. `Cc1ccc(CN(Cc2ccco2)C(=O)COc2c(C)cc(C)cc2C)cc1` gave an inhibition of 7.19%. `Oc1ccc(-c2nc3ccccn3c2Nc2ccc3c(c2)OCCO3)cc1` gave an inhibition of 0.905%. `CCCCNS(=O)(=O)c1ccc2nc(-c3cccnc3)cc(C(=O)NCCC)c2c1` showed an inhibition of 21.9%. `Cn1c(SCc2ccccc2)nnc1-c1cnccn1` was tested, and the inhibition was active: 37.1%. With `Cc1ccc(OCC(=O)Nc2ccccc2C(=O)OCc2cc(=O)n3nc(C4CC4)sc3n2)cc1` the inhibition was 12.3%. With `O=C(c1cccs1)N(Cc1cccnc1)c1nc2ccc(F)cc2s1` the inhibition was -19.4%. `CC1CCN(C(=O)c2c(NC(=O)c3ccccc3F)sc3c2CCC(C(C)(C)C)C3)CC1` (stereo not drawn) showed an inhibition of 15.9%. For `Cc1nc2ccccn2c(=O)c1NC(=O)c1c(F)cccc1F`, the inhibition was -2.36%. Work on `COc1cccc(C(=O)Nc2cc(-c3cn4cccnc4n3)ccc2C)c1OC` yielded an inhibition of 16.9%. For `Cn1c(=O)oc2cc(S(=O)(=O)N3CCC(C(=O)N4CC=C(c5ccccc5)CC4)CC3)ccc21`, the inhibition was active: 40.6%. For `CCOc1ccc(NC(=O)c2sc3nc4c(cc3c2N)CCCCCC4)cc1`, the inhibition was 14.9%. With `Cc1ncoc1C(=O)N1CCCC(C(=O)c2ccc(-c3ccccc3)cc2)C1` (stereo not drawn) the inhibition was active: 51.7%. For `O=C(NC(=O)N1CCCCCC1)c1ccc(Cl)cc1`, the inhibition was active: 31.7%. Work on `CCOc1ccc(NC(=O)c2c(NC(=O)c3ccco3)sc3c2CCC(C(C)(C)C)C3)cc1` (stereo not drawn) yielded an inhibition of -18.4%. In the case of `O=C(Nc1cccc(C(F)(F)F)c1)C1CCN(c2nnc(-n3cccc3)s2)CC1`, the inhibition is reported as -9.03%. Molecule `COc1cc(NS(=O)(=O)c2ccc(NC(=O)C(C)Oc3ccc(Cl)cc3Cl)cc2)nc(OC)n1` (stereo not drawn) has an inhibition of 11.5%. In the case of `Cc1nc2cccnc2n1-c1cccc(C(=O)NCc2ccc(OC(C)C)cc2)c1`, the inhibition is reported as -1.3%. In the case of `O=C(O)CC(NS(=O)(=O)c1ccc(Cl)s1)c1ccccc1` (stereo not drawn), the inhibition is reported as -2.55%. In the case of `COc1ccc(Nc2c(-c3ccc(Cl)cc3)nc3cnccn23)cc1OC`, the inhibition is reported as 10.3%. Work on `CCC12CN3CC(C)(CN(C1)C3c1ccc(O)cc1O)C2=O` (stereo not drawn) yielded an inhibition of 2.64%. Work on `O=C(NCc1ccccc1Cl)C1CCN(S(=O)(=O)c2ccc3c(c2)CCCN3C(=O)C2CCC2)CC1` yielded an inhibition of 3.84%. Molecule `Cc1cc(C)cc(Oc2coc3c(CN4CCN(C)CC4)c(O)ccc3c2=O)c1` has an inhibition of 3.35%. `Cc1ccc2nc(/C(C#N)=C/c3cccc(Br)c3)[nH]c2c1` gave an inhibition of -18.7%. `O=C(Cc1csc2ccccc12)NCc1cccc(Br)c1` was tested, and the inhibition was -6.43%. For `CN(C)S(=O)(=O)n1cc(/C=C(\NC(=O)c2ccccc2F)C(=O)NCCCn2ccnc2)c2ccccc21`, the inhibition was 7.14%. `Cc1ccccc1CN1CCC(CNc2ncnc3onc(-c4ccc(Cl)cc4)c23)CC1` was tested, and the inhibition was 2.42%. Work on `Cc1ccc(NC(=O)C2CCCN(c3ncnc4c3nc3n4CCCCC3)C2)cc1F` (stereo not drawn) yielded an inhibition of 0.13%. With `CC(NC(=O)C1(c2cccs2)CCOCC1)c1ccccc1` (stereo not drawn) the inhibition was -20.2%. With `CCCN(CCC)CCCNC(=O)c1cc2c(=O)oc3ccc(C)cc3c2s1` the inhibition was 28.4%. `Cc1ccc(CN2CCSc3ccc(C(=O)Nc4ccc(Cl)cc4)cc32)cc1` showed an inhibition of -10.7%. For `CCOc1ccc(CCNC(=O)CCCc2cc(-c3ccc(OCC)cc3)on2)cc1`, the inhibition was -19.2%. Work on `COc1cccc(CNC(=O)c2nnn(CC(=O)Nc3cc(Cl)ccc3C)c2N)c1` yielded an inhibition of -0.898%. For `Cc1cccc(N2C(=O)C(CC(=O)Nc3cccc(F)c3)N(Cc3cccs3)C2=O)c1` (stereo not drawn), the inhibition was -5.58%. With `Cc1ccc(Nc2cc(C)nc3nc(Cc4ccc(Cl)cc4)nn23)cc1` the inhibition was 1.43%. In the case of `COc1cccc(CNC(=O)Cn2c(=O)oc3cc(S(=O)(=O)N4CCCC4)ccc32)c1`, the inhibition is reported as -2.78%. For `Cc1ccc(-c2ccc(=O)n(Cc3ccc(F)cc3)n2)cc1`, the inhibition was 0.355%. With `CCC(=O)N1CCc2cc(Br)cc(S(=O)(=O)CCC(=O)Nc3cccc(CC)c3)c21` the inhibition was 6.71%. Work on `COC(=O)c1c(C)oc2ccc(N(C(=O)c3ccncc3)S(=O)(=O)c3cc(C)c(C)cc3C)cc12` yielded an inhibition of 13.9%. For `COc1ccc(C(CC(=O)Nc2ccc(C)cn2)N2Cc3ccccc3C2=O)cc1OC` (stereo not drawn), the inhibition was 3.84%. Molecule `CCOC(=O)N1CCC(NC(=O)c2ccc3c(c2)N(Cc2cccc(C)c2)C(=O)c2ccccc2S3(=O)=O)CC1` has an inhibition of -13.7%. In the case of `CCOc1ccccc1C1N=C(N)Nc2nc3ccccc3n21` (stereo not drawn), the inhibition is reported as -8.51%. With `CCOC(=O)c1c(S(=O)(=O)N2CCC(C(=O)N3CCN(c4cccc(C)c4C)CC3)CC2)c(C)n(C)c1C` the inhibition was 15.6%. In the case of `CC1CCCN(CCOCCOc2ccc(Cl)cc2Br)C1` (stereo not drawn), the inhibition is reported as active: 83.2%. With `Cc1ccccc1-c1nnc(CN2CCN(c3cc(Cl)ccc3C)CC2)o1` the inhibition was 6.02%. With `COc1ccc2c(C(=O)CN3CCN(c4ccccc4)CC3)c[nH]c2c1` the inhibition was active: 41.1%. `CCOc1ccc(C(=O)Nc2c(C(=O)c3ccccc3)oc3ccccc23)cc1` was tested, and the inhibition was -7.08%. In the case of `O=C(CSc1nnc(COc2ccc(Cl)cc2)o1)Nc1ccccc1`, the inhibition is reported as 17.9%. For `O=S(=O)(Nc1cccc(Cl)c1)c1ccc2[nH]c3c(c2c1)CCCCCC3`, the inhibition was 21.8%. Molecule `COc1ccc(N2CCN(C(=O)Cc3coc4ccc(C)cc34)CC2)cc1` has an inhibition of 6.04%. `CCc1ccc(CNC(=O)c2ccc(CSc3nc4ccncc4n3Cc3ccc(OC)cc3)cc2)cc1` showed an inhibition of 3.32%. In the case of `COc1ccc(C)cc1NC(=O)C(=O)NCCc1sc(-c2ccc(Cl)cc2)nc1C`, the inhibition is reported as 19.1%. `CC(C)Oc1cccc(NC(=O)C2CCN(S(=O)(=O)Cc3ccccc3)CC2)c1` gave an inhibition of 0.933%. `CCN(CC)C(=O)C1=C(C)Nc2nc3ccccc3n2C1c1ccc(Br)cc1` (stereo not drawn) showed an inhibition of -9.36%. `CCc1noc(-c2ccc(NC(C)c3ccccc3)c([N+](=O)[O-])c2)n1` (stereo not drawn) gave an inhibition of 0.333%. Molecule `CC(=O)c1cccc(NC(=O)CCS(=O)(=O)c2cc3c(cc2C)NC(=O)CO3)c1` has an inhibition of -1.37%. With `CCOC(=O)c1c(NC(C)=O)c2c3c(sc2n1Cc1nc(-c2ccc(Cl)cc2)oc1C)CCCC3` the inhibition was 8.57%.
